# Data taken from the BET-seq Pho4 binding data (Le et al. 2018).
# Some of the results follow. The energies were worked out here from pooled read counts, against the library average; single values are noisy.
# Target: T1, Pho4 (S. cerevisiae) (UniProt P07270)
# T1 sequence: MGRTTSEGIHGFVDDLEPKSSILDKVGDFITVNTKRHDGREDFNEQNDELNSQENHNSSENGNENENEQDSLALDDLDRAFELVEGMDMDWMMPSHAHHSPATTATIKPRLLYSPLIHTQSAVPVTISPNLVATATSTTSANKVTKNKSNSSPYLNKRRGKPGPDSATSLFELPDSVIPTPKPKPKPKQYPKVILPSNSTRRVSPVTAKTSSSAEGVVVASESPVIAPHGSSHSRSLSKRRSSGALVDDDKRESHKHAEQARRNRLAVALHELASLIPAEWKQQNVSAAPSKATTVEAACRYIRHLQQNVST
# Experiment: relative binding free energy (BET-seq); higher = weaker binding
# Conditions: reference: library average
row,Sequence,relative binding free energy [kcal/mol]
1,AAATTCACGTGTTTGA,0.28
2,TGGCTCACGTGTAGAG,0.19
3,GCTTGCACGTGAAGGG,0.28
4,TGATCCACGTGTGGGA,0.3
5,AAGTGCACGTGTTGAT,0.13
6,AAGGACACGTGTAGTT,0.08
7,TAATACACGTGCTGGG,-0.12
8,GATGTCACGTGGGCGG,0.04
9,AGAGACACGTGTTGGT,0.15
10,AGGTTCACGTGGTTCA,0.21
11,GTTTGCACGTGGAAGG,0.21
12,TGGGGCACGTGTGATG,0.01
13,AGGTTCACGTGGGTAG,0.18
14,GGTTACACGTGACGGG,0.22
15,TACCTCACGTGTGTTT,0.37
16,TCTATCACGTGGGAGA,0.21
17,ATTATCACGTGGGTGC,-0.03
18,CGGGGCACGTGGGCGC,-0.33
19,AATTGCACGTGATTGA,0.03
20,ATCTTCACGTGGTGGG,0.27
21,AGGGTCACGTGGAGGC,0.06
22,ATTTCCACGTGGATGG,-0.01
23,TGGCACACGTGTAGGC,0.12
24,ATTGTCACGTGTAGTA,0.08
25,GGCGTCACGTGTTGGG,0.17

row,Sequence,relative binding free energy [kcal/mol]
1,ACTTGCACGTGGTATG,-0.13
2,GTAACCACGTGGGGGA,-0.08
3,GACGGCACGTGGTGGG,-0.04
4,GGCGGCACGTGGACCG,0.01
5,TAGGGCACGTGTATCG,-0.01
6,GTGGTCACGTGTATCA,0.17
7,CGTAGCACGTGGCGGC,-0.12
8,AGGGGCACGTGCGGAG,-0.3
9,GTTGTCACGTGGGCCT,-0.07
10,AGGGGCACGTGCAATA,-0.02
11,TGGAACACGTGGTTAT,0.09
12,ATGGGCACGTGTTAGG,-0.08
13,CGTTGCACGTGGGCTA,-0.16
14,GTGGTCACGTGTGCCG,-0.06
15,TGTGCCACGTGTCTGG,-0.04
16,TATGGCACGTGACTTT,-0.06
17,CTTAGCACGTGAGGTT,0.1
18,GTGTTCACGTGGTCGT,0.17
19,GCATGCACGTGTGTAT,0.1
20,TGATTCACGTGTCAGG,0.31
21,GCCTTCACGTGTGTGT,0.32
22,AGGCTCACGTGGGTAA,0.03
23,TGTTACACGTGAAAAT,0.42
24,ATGATCACGTGATGTC,0.4
25,AGGAACACGTGTGTTG,0.01

row,Sequence,relative binding free energy [kcal/mol]
1,TTTGCCACGTGGCGGT,-0.13
2,TTAAGCACGTGCAGGG,-0.13
3,TTTGACACGTGGAAGA,0.05
4,TCTAGCACGTGGTTGG,-0.16
5,GTCTGCACGTGTGTGT,0.03
6,GATGACACGTGTGCGT,0.24
7,GTTTGCACGTGGAGGT,0.05
8,ATGTTCACGTGTATTG,0.23
9,GTAGGCACGTGAAAGA,0.21
10,GTCTTCACGTGGATGG,0.26
11,AAGTACACGTGGAGGT,0.19
12,ATGGACACGTGGCTAT,-0.02
13,AGGGTCACGTGGAGGG,0.11
14,AATTTCACGTGGTGAC,0.26
15,TTTGCCACGTGTTGAA,0.06
16,GGTCGCACGTGGGTGG,-0.14
17,ATGAACACGTGTCGGG,0.12
18,TGAGTCACGTGATGGT,0.17
19,CAGATCACGTGGCGGG,0.07
20,ATGGACACGTGTATGT,0.15
21,AATGTCACGTGTAGAG,0.19
22,GATGGCACGTGTAAAG,0.08
23,TTGGCCACGTGGAGGA,0
24,TGTTTCACGTGAAAGC,0.37
25,AAGGTCACGTGTAGAG,0.09

row,Sequence,relative binding free energy [kcal/mol]
1,CGGTACACGTGTTAAG,0.15
2,TAAGACACGTGTTTTT,0.13
3,AAGTACACGTGTGGTC,0.21
4,AATGTCACGTGTTCTT,0.19
5,GTGAACACGTGTGAGG,0.09
6,CTCGTCACGTGGGAGG,0.1
7,TATCGCACGTGTTGTT,-0.01
8,ATTGACACGTGTGGCA,0.08
9,CGTTTCACGTGAGATG,0.43
10,CGGGTCACGTGGGTGA,-0.05
11,GGCGGCACGTGGCGGC,0.01
12,TGGGGCACGTGGGCAA,-0.21
13,TGGCACACGTGGGCAT,0.09
14,TGAGGCACGTGAACTG,0.11
15,GGGTACACGTGTCATG,0
16,GTGTGCACGTGGATGC,-0.05
17,TTATTCACGTGCTAGG,0.2
18,AGTGCCACGTGAGGGT,0.15
19,AAGGTCACGTGTATAG,0.02
20,AGGCTCACGTGTGCTG,0.23
21,GGTATCACGTGTAGCG,0.16
22,GGGGGCACGTGAGGCC,-0.07
23,ACGTGCACGTGCTGGT,-0.09
24,GGGTGCACGTGGATTT,0.15
25,TGGGCCACGTGTTAAG,-0.05

row,Sequence,relative binding free energy [kcal/mol]
1,TGTAGCACGTGTTGCA,-0.18
2,TGGGTCACGTGGGAGG,0.07
3,TAACGCACGTGATTGG,0.06
4,TGAGACACGTGCGTTA,0.07
5,GGACTCACGTGTTTTG,0.2
6,AGGTTCACGTGTGCAA,0.32
7,GGGACCACGTGATTGT,0.16
8,TGCAACACGTGGTTGG,-0.16
9,AGTTACACGTGAGTTT,0.31
10,TTTGACACGTGTCGTG,0.06
11,TTTGACACGTGATAGT,-0.02
12,ATATTCACGTGAGCGG,0.31
13,CTTAGCACGTGGCGGT,-0.14
14,TGAGACACGTGGCGTA,-0.12
15,CGAGGCACGTGTGGGT,-0.08
16,CGAGTCACGTGGTGGC,-0.03
17,GCGGGCACGTGTAAAG,0.16
18,GGGGTCACGTGTAGAC,0.17
19,GGACGCACGTGGGTGG,-0.22
20,TTCTGCACGTGAATGT,0.31
21,CGTTGCACGTGGGAGT,0
22,TGTTACACGTGCAGTA,0.06
23,GATAGCACGTGCGAGG,0.01
24,AGGGTCACGTGTAGAG,0.07
25,GTTAGCACGTGAGTTA,0.22

row,Sequence,relative binding free energy [kcal/mol]
1,GAGTGCACGTGTGTGC,0.01
2,GCGGACACGTGGGTAT,0.08
3,TAATGCACGTGGGAGG,-0.06
4,TGATACACGTGGGGTG,-0.11
5,AAGTTCACGTGGTATA,0.39
6,AGGCTCACGTGGTTAT,0.13
7,GCGGTCACGTGGGATG,0.14
8,TATTTCACGTGCGTCA,0.32
9,GGGAGCACGTGACGTG,0.21
10,ATTGTCACGTGCGGAT,0.16
11,TGTAGCACGTGGTTTG,-0.09
12,TGAGGCACGTGCTATG,-0.24
13,AAATACACGTGTGTGT,0.11
14,TCGTGCACGTGTTCGT,-0.09
15,AATTACACGTGTAGAG,0.14
16,TTTAACACGTGGTAGA,-0.11
17,TGGGCCACGTGCGTTA,-0.1
18,AAAATCACGTGTTGAG,0.23
19,GCGTTCACGTGATTGT,0.41
20,GCGTTCACGTGTGAGG,0.29
21,TAACTCACGTGGGGGA,0.06
